In all, about 280,000 compounds went through this assay and about 100 (0.036%) were called active. The shares of active, inactive and inconclusive entries below differ from those in the screen. Calls come from the whole dose curve; as a rule, active = well fitted inhibition curve with a large enough effect in the signal ratio, with a control signal flat (not every such curve was filed as active); inconclusive = small, poorly fitted or top-dose-only effect, or effect the other way, or a change in a side signal; inactive = no such curve, though single readings can be large or run the other way; the % refers to the signal ratio. A potency beside an inconclusive call is a rough fit, not a confirmed value. A note “side channel” means that the fit belongs to a control or component signal, not to the main read-out.
The molecules below were run against Muscleblind-like protein 1 (Homo sapiens) (UniProt Q9NR56) (assay: qHTS Assay for Inhibitors of MBNL1-poly(CUG) RNA binding). Conditions: TR-FRET MBNL1-His/biotin-(CUG)12 binding, 665/545 ratio; activity change, negative = inhibition: at 57.5 µM (top of the series).
Chain of UniProt Q9NR56 (Q9NR56 whole entry, looked up): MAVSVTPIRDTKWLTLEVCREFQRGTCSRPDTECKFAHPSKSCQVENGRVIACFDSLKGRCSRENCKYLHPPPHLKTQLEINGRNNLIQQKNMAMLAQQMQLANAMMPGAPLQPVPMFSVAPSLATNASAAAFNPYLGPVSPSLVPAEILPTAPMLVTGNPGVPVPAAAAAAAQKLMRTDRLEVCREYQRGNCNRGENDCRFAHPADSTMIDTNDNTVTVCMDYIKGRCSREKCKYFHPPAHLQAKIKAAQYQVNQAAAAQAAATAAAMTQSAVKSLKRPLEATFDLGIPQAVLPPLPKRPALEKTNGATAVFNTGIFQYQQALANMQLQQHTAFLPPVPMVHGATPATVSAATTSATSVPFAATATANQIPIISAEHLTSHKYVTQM
In short: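 Ratiometric TR-FRET (665 over 545 nm, excitation 340 nm) tracks disruption of MBNL1-His/biotin-(CUG)12 complex after 60 min at room temperature, with compounds at 92 nM to 58 uM final.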
% is set by controls: 0 for no effect and ±100 for the full control effect; potency is the fitted concentration of half-maximal effect; tags give direction and shape of the fitted curve or compound fluorescence and quenching.

Structure (SMILES) | activity change, negative = inhibition | Potency
Nc1ccc(S(=O)(=O)c2ccc(N)c(N)c2)cc1 | inactive: -11.8% | 
CC1=C(C#N)C(c2cccnc2)C2=C(N1)c1ccccc1C2=O (configuration not stated) |  | inconclusive: 12.6 µM [quencher, side channel, partial curve]
CCc1ccc(-c2cc(C)no2)cc1S(=O)(=O)N1CCN(c2ccccc2)CC1 | inactive: 7.64% | 
CN(Cc1ccccc1)C(=O)c1nc2ccccn2c1CNCCCOc1cccnc1 | inactive: -17.3% | 
O=C(Nc1ccc2nc3n(c(=O)c2c1)CCCC3)c1cccc([N+](=O)[O-])c1 |  | inconclusive: 2.51 µM [quencher, side channel, partial curve]
O=C(NNC(=O)c1ccc([N+](=O)[O-])o1)c1ccccc1 |  | inconclusive: 10 µM [quencher, side channel, partial curve]
CCN(CC)C(=O)c1ccc2nc3ccccc3nc2c1 |  | inconclusive: 8.91 µM [quencher, side channel, partial curve]
COc1ccc(CCN2C(=O)C3C4CCC(C4=C(C)C)C3C2=O)cc1OC (configuration not stated) |  | inconclusive: 10 µM [fluorescent, side channel, partial curve]
O=C(O)c1cccc(Cn2c(Cl)c(/C=N/Nc3ccccc3)sc2=O)c1 |  | inconclusive: 28.2 µM [quencher, side channel, single point]
Cc1ccc2nc(-c3ccccc3)cc(C(=O)NCCCn3ccnc3)c2c1 |  | inconclusive: 17.8 µM [quencher, side channel, partial curve]
O=C(N/N=C\c1cccc(F)c1)c1ccc(Cn2cc(Br)c([N+](=O)[O-])n2)o1 |  | inconclusive: 12.6 µM [quencher, partial curve]
CN(C(=O)c1cccc([N+](=O)[O-])c1)c1ccccc1C(=O)NCc1ccccc1 |  | inconclusive: 28.2 µM [quencher, single point]
CCc1nc2n[nH]c(N)c2c2c1CSC(C)(C)C2 | inactive: -0.526% | 
CCN1CCN(Cc2c(O)ccc3c2O/C(=C\C=C\c2ccccc2)C3=O)CC1 | inconclusive: 11.9% [phenotype inactive] | 
CNc1c([N+](=O)[O-])cnn1-c1ccccc1Cl | inactive: 17.9% | 
COc1ccccc1-n1c(=S)[nH]c2c(sc(=S)n2-c2ccccc2)c1=O |  | inconclusive: 28.2 µM [quencher, side channel, partial curve]
COc1cc(/C=C2/SC(=S)N(CC(=O)O)C2=O)ccc1OC(=O)c1cccs1 |  | inconclusive: 25.1 µM [quencher, side channel, single point]
CN(C)/C=C/C(=O)c1cccc([N+](=O)[O-])c1 |  | inconclusive: 31.6 µM [quencher, side channel, single point]
COc1ccc(-c2ccc3c(N)c(C(=O)NC(C)C)sc3n2)cc1OC |  | inconclusive: 25.1 µM [quencher, side channel, partial curve]
CCC(=O)N(Cc1ccco1)Cc1cc2cccc(C)c2n2nnnc12 | inactive: 10.1% | 
O=C1c2ccccc2-c2cccnc21 |  | inconclusive: 3.16 µM [quencher, side channel, partial curve]

Structure (SMILES) | activity change, negative = inhibition | Potency
Cc1c(Cl)c([N+](=O)[O-])nn1CC(=O)NCc1cccnc1 |  | inconclusive: 17.8 µM [quencher, side channel, partial curve]
COc1cccc(-c2onc3ccc(C(=O)/C=C/N(C)C)cc23)c1 |  | inconclusive: 22.4 µM [quencher, side channel, single point]
COC(=O)c1ccc(-c2cc(C(=O)O)c3cc4c(cc3n2)OCCO4)cc1 |  | inconclusive: 28.2 µM [quencher, partial curve]
CN(C)CCCN(C(=O)CCSc1ccccc1)c1nc2cc3c(cc2s1)OCO3 | inactive: -18.2% | 
CCN1C(=O)S/C(=C/c2ccc(Sc3nc4ccccc4[nH]3)o2)C1=O |  | inconclusive: 25.1 µM [quencher, side channel, single point]
Cc1nccc2oc(=O)c(NC(=O)c3ccc(Cl)cc3)cc12 |  | inconclusive: 3.16 µM [quencher, side channel, full curve]
Cc1ccc(S(=O)(=O)c2nc(-c3ccco3)oc2SCC(=O)NCC2CCCO2)cc1 (configuration not stated) |  | inconclusive: 0.631 µM [quencher, side channel, single point]
COc1ccccc1Nc1ccc2nonc2c1[N+](=O)[O-] |  | inconclusive: 1.78 µM [quencher, side channel, full curve]
COC(=O)c1ccc(N2CCN(S(=O)(=O)c3ccccc3)CC2)c([N+](=O)[O-])c1 |  | inconclusive: 0.398 µM [quencher, side channel, full curve, poor fit]
Cc1oc2c(CN3CCCCC3)c(O)ccc2c(=O)c1-c1ccc(Cl)cc1 | inactive: -2.9% | 
CCCCc1nc2sc3c(SCC(=O)NCc4ccco4)ncnc3c2c2c1CCC2 |  | inconclusive: 15.8 µM [fluorescent, side channel, partial curve, poor fit]
CCCNC(=O)c1ccc2c(=O)c(O)c(-c3ccc(F)cc3)[nH]c2c1 |  | inconclusive: 28.2 µM [quencher, side channel, single point]
COc1cccc(Nc2cc(N3CCOCC3)c3nonc3c2[N+](=O)[O-])c1 |  | inconclusive: 3.55 µM [quencher, side channel, partial curve]
COc1ccc2c(c1)-c1nc(NC(=O)c3ccco3)sc1CC2 | inactive: -14.6% | 
COc1cc2c(cc1OC)CN(Cc1cc(=O)n3cc(C)ccc3n1)CC2 |  | inconclusive: 11.2 µM [quencher, side channel, partial curve]
C[C@@H]1NC(=O)[C@H](CCC(N)=O)NC(=O)c2cc([N+](=O)[O-])cc(I)c2NCCC[C@@H](C(N)=O)NC1=O |  | inconclusive: 25.1 µM [quencher, side channel, partial curve, poor fit]
CC(=O)c1cc(C#N)c(SCC(=O)OC(C)(C)C)nc1C |  | inconclusive: 22.4 µM [fluorescent, side channel, single point]
CC1CN(c2ccc([N+](=O)[O-])cc2F)CCN1C(=O)c1ccco1 (configuration not stated) |  | inconclusive: 35.5 µM [quencher, side channel, partial curve]
O=C1N=C(N2CCOCC2)S/C1=C/c1cccs1 |  | inconclusive: 17.8 µM [quencher, side channel, partial curve]
CCCN1CCN(c2ccc(S(N)(=O)=O)cc2[N+](=O)[O-])CC1 |  | inconclusive: 25.1 µM [quencher, side channel, partial curve]
O=C1NC(=O)C2C1C(c1ccc([N+](=O)[O-])cc1)=NN2Cc1ccccc1 (configuration not stated) |  | inconclusive: 15.8 µM [quencher, partial curve]

Structure (SMILES) | activity change, negative = inhibition | Potency
CN(C(=O)c1ccccc1OCc1ccc(Cl)cc1)c1ccccc1 |  | inconclusive: 31.6 µM [quencher, side channel, single point]
O=C(NCc1cccs1)C1CCC(CNS(=O)(=O)c2cccc3nsnc23)CC1 (configuration not stated) |  | inconclusive: 10 µM [quencher, side channel, partial curve]
O=C(OCC(=O)N1CCCC1)c1ccc(Cl)c([N+](=O)[O-])c1 |  | inconclusive: 8.91 µM [quencher, partial curve]
O=C(CSc1ccccn1)Nc1ccc(Cl)c([N+](=O)[O-])c1 |  | inconclusive: 28.2 µM [activator, partial curve, poor fit]
CC1CCN(c2ccc([N+](=O)[O-])cc2C(N)=O)CC1 |  | inconclusive: 14.1 µM [quencher, side channel, partial curve]
O=C(c1ccco1)N1CCN(c2nc3ccccc3n3nnnc23)CC1 |  | inconclusive: 31.6 µM [quencher, side channel, single point]
N#Cc1cc2c(=O)n3ccccc3nc2n(-c2ccc(Cl)cc2)c1=O |  | inconclusive: 17.8 µM [quencher, side channel, partial curve]
CC(C)=CCC/C(C)=C/C=N/NC(=O)c1cccc([N+](=O)[O-])c1 | inactive: 12.5% | 
CCCCn1c(/C=N/Nc2nc3ccccc3[nH]2)nc2ccccc21 | inactive: 5.59% | 
COc1cc(/C=C(\C#N)C(=O)Nc2ccc3c(c2)OCCO3)ccc1O |  | inconclusive: 20 µM [quencher, side channel, partial curve]
CC1CC(C)CN(CCCSc2ccccc2)C1 (configuration not stated) | inactive: -2.03% | 
COc1ccc(OCCNC(=S)Nc2cccc3ccccc23)cc1 |  | inconclusive: 39.8 µM [fluorescent, side channel, single point]
NCCSC1CC(=O)N(c2ccc(F)cc2)C1=O (configuration not stated) |  | inconclusive: 126 µM [inhibitor, partial curve]
COc1ccc(/C=C2\N=C(SC)NC2=O)cc1 |  | inconclusive: 17.8 µM [quencher, side channel, partial curve]
O=C(Nc1nc(-c2ccccn2)cs1)Nc1ccc(F)cc1F | inactive: 0.278% | 
CC1Cc2ccccc2N1CC(=O)NC(=O)NC1CCCCC1 (configuration not stated) | inactive: -5.86% | 
Cc1cc(C)cc(NC(=O)c2nnn(Cc3cc(C)ccc3C)c2N)c1 |  | inconclusive: 8.91 µM [quencher, side channel, single point]
CC(/C=N/N1CCN(c2ccc(C)cc2)CC1)=C\c1ccccc1 | inactive: -3.34% | 
O=C(C[n+]1ccc2c(c1)nnn2-c1ccccc1)c1ccc(Cl)cc1 |  | inconclusive: 8.91 µM [quencher, partial curve]
O=C(Nc1ccccn1)c1ccc2ccccc2n1 |  | inconclusive: 20 µM [quencher, side channel, partial curve]

Source: PubChem BioAssay AID2675 (National Center for Advancing Translational Sciences (NCATS), 2010)
